Laboratory results published in paper PMC12136788.
The other results are listed elsewhere or left out.

T1: UNK ZnF1-3 (human, UniProt Q9C0B0 31-174)
T1 sequence: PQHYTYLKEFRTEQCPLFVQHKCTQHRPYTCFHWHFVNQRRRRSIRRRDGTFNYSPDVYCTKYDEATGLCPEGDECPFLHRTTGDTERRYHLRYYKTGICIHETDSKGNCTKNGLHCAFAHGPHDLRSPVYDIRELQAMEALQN

B1: 150667170_150667290_129_CDS_ENSG00000143457_ENST00000271732|human|control|control (ssRNA)
RNA: GGGAGUUCUACAGUCCGACGAUCAAGAGUAAGGCGGAUAUCCUUAGAGUCUCCAGAAUCUUCAUUGUCUGGACUUUUCUCCCAAUUACUGUCUUCCUCACUUUCCAUCUUCUUUUCAGAGUUCUUGCUUAUUUCAGUGCGACGCAACAGAGGAUUGAGCAUCA
B2: chr2:183792894:183792895:-_ENSG00000061676_ENST00000360982|hu_mus|FALSE|FALSE (ssRNA)
RNA: GGGAGUUCUACAGUCCGACGAUCUGCAAGCGCCAGGAAUUCCUUAAGUCGGUCUUCAAUACUUCCUUUGUGAAUUGUAAACAAAGCUGCAGCAAUCUGGUUGAUGGCUUUGGCCAAACAAUGUAUAUUGUUGCAGUGUCCUUCCAACAGAGGAUUGAGCAUCA
B3: chr17:35975056:35975057:-_ENSMUSG00000001525_ENSMUST00000001566|mus_mus|FALSE|FALSE (ssRNA)
RNA: GGGAGUUCUACAGUCCGACGAUCCUACGGUUUACUGAAAUAAUUGUUUUUGAUGGUUCCAAUGUAGGUACCGAACAAGAAAGAAAAUUAAGGUUUUUGGGGUUUUUUUCUUCUGGGCCGGUCUCAGACUGAAAGGAUGGACCGCAACAGAGGAUUGAGCAUCA
B4: chr11:48615247:48615248:+_ENSMUSG00000020372_ENSMUST00000020640|perfect_dup|FALSE|FALSE (ssRNA)
RNA: GGGAGUUCUACAGUCCGACGAUCUCCAUCCCAGGAGCCUGAGAGGGCAAACUGGCCAUCUGAGGAGAUAACCACAUCACUAACAAAGUGGGAGUGACCCCGCAGAGCACGCUGUGGAAUUCCAUAGUUGGUCUCAUCCCUGGUCAACAGAGGAUUGAGCAUCA
B5: chr9:21333030:21333031:-_ENSG00000198642_ENST00000537938|hu_hu|FALSE|FALSE (ssRNA)
RNA: GGGAGUUCUACAGUCCGACGAUCAAGGGGAAGUAUUAGAUCACCCAUGACGUACUGCAAAGGUGUUACACCUUAGACCUAAGAAUGAUCUGAAGGUGCUGAAAGAGGUGAUUCUCUAGAAGGUGACCCAGGGUUUUCUUCAGGCAACAGAGGAUUGAGCAUCA
B6: chr17:55916980:55916981:-_ENSG00000181610_ENST00000313608|hu_hu|motif|central (ssRNA)
RNA: GGGAGUUCUACAGUCCGACGAUCUCACAUAACUGCUUCUGUCAAACCAUGAUACUGAGCUUUGUGACAACCCAGAAAUAACGGAGAGAAGGCAAACAUAAUACCUUAGAGAUCAAGAAACAUUUACACAGUUCAACUGUUUAACAACAGAGGAUUGAGCAUCA
B7: chr5:37680062:37680063:+_ENSMUSG00000029121_ENSMUST00000031004|mus_hu|mus_mus_mus_hu_False|18_38 (ssRNA)
RNA: GGGAGUUCUACAGUCCGACGAUCUUUGGGUGUAGCUGGUACCUCGUACACAGGACCGUCAUACAUGCCCCUGGAAACCCCUUGCAAUCCAAAAACCUUGCUUCUGAUUUUGACGCGCUGGUAGAGAUGCUCCGGGAACGCCUUCAACAGAGGAUUGAGCAUCA
B8: chr7:65705475:65705476:+_ENSG00000169902_ENST00000304842|hu_hu|hu_hu_hu_mus_True|48_108 (ssRNA)
RNA: GGGAGUUCUACAGUCCGACGAUCUCUAUCCGGUGAUGGCACUCCAUGGCAUGCUGGCCCAGGUAAAACACGGUCACAGAACUAAUCACCAGACAUGCCAAGAGUAAGUUCUGCUUCAGCUUCCCAACCAUCUUGAUGUGGUUACAACAGAGGAUUGAGCAUCA
B9: chr1:39494447:39494448:+_ENSG00000168653_ENST00000372967|hu_mus|hu_hu_hu_mus_False|58_58 (ssRNA)
RNA: GGGAGUUCUACAGUCCGACGAUCGCACCGAGCGGCGUUCUUAUAGGGCUGUUCUGCGCUUAGGAACAUAAAGUGCCGAUCUAUGUUGAUGCCCAGCUUUUUCUGUAUGUCAAGGAAAGGCAUGGCUCUGCAGUGCCCUUGUCACAACAGAGGAUUGAGCAUCA
B10: chr4:141471443:141471444:+_ENSG00000179387_ENST00000323570|hu_hu|motif|central (ssRNA)
RNA: GGGAGUUCUACAGUCCGACGAUCAAGUGCUACAUUACAAUCCAGUAAAAGUCCUUUAAUCUUUUCAUGAAACUUCUCUCGGUACAAAUUGAAAUACAUAAUGCUUUCUGGUUCUUCUUCAAACCAAAACUUGUCAAAUUCAUACAACAGAGGAUUGAGCAUCA
B11: chr14:78183846:78183847:+_ENSG00000119705_ENST00000557342|hu_hu|hu_hu_hu_mus_False|8_68 (ssRNA)
RNA: GGGAGUUCUACAGUCCGACGAUCUCUCAGAAAUCUUUCUUCAUCAGAUGUUUGAGCUCCGUGCAAAAGUUUUGGCCUUUGAGCUUGAACGUGGAUCUAUGGGAGGGAAAGCACUGUCAGAAAAGGUUGUAGUGCAUUUAAAGACAACAGAGGAUUGAGCAUCA
B12: chr11:77336104:77336105:-_ENSG00000074201_ENST00000525064|hu_mus|hu_hu_hu_mus_False|58_58 (ssRNA)
RNA: GGGAGUUCUACAGUCCGACGAUCCUCACACAUUGCUGUGAACAUCGCCUCCAAUGCUGACUUAUCACUGGGCACAAAUCUAAAUUCAGAAAUGGGUUCAACAUCAUCAUUGUCUUCCUCAUCUUCAUCAGAGAGAGGUUCUUUCAACAGAGGAUUGAGCAUCA
B13: 74007183_74007383_934_CDS_ENSMUSG00000034863_ENSMUST00000093450|mouse|control|control (ssRNA)
RNA: GGGAGUUCUACAGUCCGACGAUCAGGAUAAACCAUUGCCGAUGUGUAGAAGCCCAGCCAGGCAAAAUACAUGGCAAUCUUCACCCCAAAAUAGUCACAGAUAUCAUCUAAAGGCUGGUUUUCACACACGGCCUGCACCCAGGACAACAGAGGAUUGAGCAUCA
B14: chr8:106942660:106942661:-_ENSMUSG00000035770_ENSMUST00000041769|mus_hu|FALSE|FALSE (ssRNA)
RNA: GGGAGUUCUACAGUCCGACGAUCAUUAAAAUUUAAAAUUAUACCAUAUUCCUCUUCGGCAUGUGCCUUUCCAGGAAUUCUUGUUUCUGAGGUCACUCAUUUUACUCCCGGGGACUAAGCGACCCCACCUUUAGUGAGGCCACACAACAGAGGAUUGAGCAUCA

Molecular target: T1, UNK ZnF1-3
Test: nsRBNS (natural sequence RNA bind-n-seq); RBNS binding buffer (assumed for nsRBNS): 25 mM Tris pH 7.5, 150 mM KCl, 3 mM MgCl2, 0.01% Triton X-100, 500 ug/ml BSA, 20 U/ml SUPERase-In, 4 C; UNK is unkempt and MSI1 is Musashi-1; names of the RNAs are library labels; protein concentration not given here; high values mean tight binding

| Binder | binding signal |
| --- | --- |
| B1 | 0.448 enrichment R |
| B2 | 0.745 enrichment R |
| B3 | 0.739 enrichment R |
| B4 | 1.14 enrichment R |
| B5 | 0.957 enrichment R |
| B6 | 0.952 enrichment R |
| B7 | 0.847 enrichment R |
| B8 | 0.488 enrichment R |
| B9 | 0.592 enrichment R |
| B10 | 0.932 enrichment R |
| B11 | 1.69 enrichment R |
| B12 | 0.953 enrichment R |
| B13 | 0.687 enrichment R |
| B14 | 0.948 enrichment R |
